We go through 27 molecules from PubChem BioAssay AID1224863 (Southern Research Institute, 2016).

As a reminder, the viability is a read-out of living cells in per cent, often relative to untreated cells.

Where “and” joins values, the source holds several entries; their conditions need not be identical. Identical values can stand only once. The list shows a part of the results. These are further read-outs of the screen, such as a control signal, another cell line or another target. No call is given for them.

A short description of assay [1]: compounds raising F508del-CFTR protein level – cell-based, HeLa F508del-CFTR, immunofluorescence, viability, primary screen (AID 1224863).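 On fold increase: total CFTR protein by anti-CFTR immunofluorescence in fixed cells.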 The settings on record: immunofluorescence total CFTR, 24 h, stronger effect = higher value; min viability: measured here: HeLa viability, alamarBlue, dose 50, library dosed in µM unless noted; viability: measured here: primary viability 25 uM, at 25 µM, library dosed in µM unless noted. (Resazurin is reduced to fluorescent resorufin, in cell work by metabolically active cells.)

In assay [2] the target is Cystic fibrosis transmembrane conductance regulator (Homo sapiens) (UniProt P13569). The description is as above. The settings on record: immunofluorescence total CFTR, 24 h, stronger effect = higher value; measured here: primary screen single dose 25 uM, at 25 µM, library dosed in µM unless noted.
Chain of UniProt P13569 (P13569 whole entry, looked up): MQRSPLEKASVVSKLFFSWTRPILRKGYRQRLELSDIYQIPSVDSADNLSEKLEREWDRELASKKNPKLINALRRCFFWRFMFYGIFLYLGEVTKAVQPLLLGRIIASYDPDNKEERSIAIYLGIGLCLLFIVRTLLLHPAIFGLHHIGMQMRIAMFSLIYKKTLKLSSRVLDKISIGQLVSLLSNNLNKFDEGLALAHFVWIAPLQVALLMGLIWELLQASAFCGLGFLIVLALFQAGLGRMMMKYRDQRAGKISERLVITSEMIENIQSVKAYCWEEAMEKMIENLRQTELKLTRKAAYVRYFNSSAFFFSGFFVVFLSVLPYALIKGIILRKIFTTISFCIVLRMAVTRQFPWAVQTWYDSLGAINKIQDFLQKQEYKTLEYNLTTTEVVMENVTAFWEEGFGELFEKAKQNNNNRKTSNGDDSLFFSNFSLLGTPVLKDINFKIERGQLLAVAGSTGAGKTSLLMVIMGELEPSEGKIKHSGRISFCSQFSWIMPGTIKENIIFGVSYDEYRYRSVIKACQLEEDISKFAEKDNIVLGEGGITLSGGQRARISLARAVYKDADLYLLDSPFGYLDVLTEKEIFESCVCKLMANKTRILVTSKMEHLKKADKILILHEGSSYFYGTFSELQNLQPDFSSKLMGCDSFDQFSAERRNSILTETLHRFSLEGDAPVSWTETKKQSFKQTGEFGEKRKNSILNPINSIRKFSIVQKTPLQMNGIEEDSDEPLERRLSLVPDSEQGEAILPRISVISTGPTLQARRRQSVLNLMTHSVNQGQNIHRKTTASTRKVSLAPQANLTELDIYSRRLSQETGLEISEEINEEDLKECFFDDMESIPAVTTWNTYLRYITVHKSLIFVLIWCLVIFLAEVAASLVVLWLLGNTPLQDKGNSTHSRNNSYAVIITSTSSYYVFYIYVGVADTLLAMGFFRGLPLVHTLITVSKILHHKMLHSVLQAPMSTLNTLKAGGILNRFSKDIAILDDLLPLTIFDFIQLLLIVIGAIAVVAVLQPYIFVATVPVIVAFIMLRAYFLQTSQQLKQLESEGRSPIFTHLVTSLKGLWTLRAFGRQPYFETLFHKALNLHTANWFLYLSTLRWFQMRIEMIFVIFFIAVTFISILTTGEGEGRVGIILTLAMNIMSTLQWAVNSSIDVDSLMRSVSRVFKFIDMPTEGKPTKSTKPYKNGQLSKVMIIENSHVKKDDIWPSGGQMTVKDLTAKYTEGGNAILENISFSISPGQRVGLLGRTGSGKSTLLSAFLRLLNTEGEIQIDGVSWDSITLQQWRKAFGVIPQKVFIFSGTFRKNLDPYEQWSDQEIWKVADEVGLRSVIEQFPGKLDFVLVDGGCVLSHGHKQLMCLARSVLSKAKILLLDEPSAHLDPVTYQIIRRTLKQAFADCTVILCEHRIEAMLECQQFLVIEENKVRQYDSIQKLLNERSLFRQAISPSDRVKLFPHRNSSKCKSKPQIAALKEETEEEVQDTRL

As to `N#Cc1nc2c(S(=O)(=O)c3ccccc3)c(N)n(Cc3cccnc3)c2nc1C#N`, in assay [1], the min viability was 92.1% [measured here: HeLa viability, alamarBlue, dose 5, library dosed in µg/mL] and the viability was 73% [measured here: primary viability 10 ug/mL, library dosed in µg/mL]. Moreover, the fold increase in assay [2] is 1.52 [measured here: primary screen 10 ug/mL, library dosed in µg/mL].

In the case of `CCCCn1c(N)c(N(CCC(C)C)C(=O)CCNC(=O)NC23CC4CC(CC(C4)C2)C3)c(=O)[nH]c1=O`, in assay [1], the min viability was 70.8% [measured here: HeLa viability, alamarBlue, dose 0.31, library dosed in µg/mL] and the viability was 100% [measured here: primary viability 10 ug/mL, library dosed in µg/mL]. Further, the fold increase in assay [2] is 2.42 [measured here: primary screen 10 ug/mL, library dosed in µg/mL].

For `O=S(=O)(Nc1ccc(-c2cn3cccnc3n2)cc1)c1ccc2c(c1)OCCO2`, in assay [1], the min viability is 67.9% [measured here: HeLa viability, alamarBlue, dose 20, library dosed in µg/mL] and the viability is 79% [measured here: primary viability 10 ug/mL, library dosed in µg/mL]. Besides, the fold increase in assay [2] is 3.94 [measured here: primary screen 10 ug/mL, library dosed in µg/mL].

For `CCC(C)(C)C(=O)O[C@H]1C[C@@H](C)C=C2C=C[C@H](C)[C@H](CC[C@@H]3C[C@@H](O)CC(=O)O3)[C@H]21`, in assay [1], the min viability was 79.5% [measured here: HeLa viability, alamarBlue, dose 0.09, library dosed in µM]; the viability was 83% and 88%. In assay [2], the fold increase was 1.57 and 1.2 and 1.52.

Take `O=C1c2c(O)ccc(O)c2C(=O)c2c(NCCNCCO)ccc(NCCNCCO)c21`: in assay [1], the min viability was 48.1%; the viability was 54% and 37% and 70%. Also, the fold increase in assay [2] is 0.85 and 0.55 and 3.24.

For `CC1CN(C(C)(C)CNC(=O)c2ccc(Br)s2)CC(C)O1` (stereo not given), in assay [1], the min viability was 69.6% [measured here: HeLa viability, alamarBlue, dose 0.078, library dosed in µg/mL] and the viability is 95% [measured here: primary viability 10 ug/mL, library dosed in µg/mL]. Also, the fold increase in assay [2] is 4.54 [measured here: primary screen 10 ug/mL, library dosed in µg/mL].

As for `O=C1N=C(O)CN1/N=C/c1ccc(-c2ccc([N+](=O)[O-])cc2)o1`, in assay [1], the min viability is 61% [measured here: HeLa viability, alamarBlue, dose 3.13, library dosed in µM] and the viability worked out at 104%. In assay [2], the fold increase is 1.83.

Take `CCCCC1C(=O)N(c2ccccc2)N(c2ccc(O)cc2)C1=O` (stereo not given): in assay [1], the min viability is 62.6% and the viability amounted to 84%. Further, the fold increase in assay [2] is 1.94.

With `Cc1ccc2c(COc3cccc4c3CCC4=O)cc(=O)oc2c1`, in assay [1], the min viability is 66% [measured here: HeLa viability, alamarBlue, dose 2.5, library dosed in µg/mL] and the viability is 84% [measured here: primary viability 10 ug/mL, library dosed in µg/mL]. Also, in assay [2], the fold increase was 1.74 [measured here: primary screen 10 ug/mL, library dosed in µg/mL].

In the case of `Cc1nc(N2CCC3(CC2)OCCO3)c2c(-c3cccs3)csc2n1`, in assay [1], the min viability was 62.4% [measured here: HeLa viability, alamarBlue, dose 5, library dosed in µg/mL] and the viability was 91% [measured here: primary viability 10 ug/mL, library dosed in µg/mL]. Further, the fold increase in assay [2] was 1.62 [measured here: primary screen 10 ug/mL, library dosed in µg/mL].

For `COC(=O)c1ccoc1COC(=O)c1cc2c(cc1[N+](=O)[O-])OCO2`, in assay [1], the min viability is 70.3% [measured here: HeLa viability, alamarBlue, dose 0.63, library dosed in µg/mL] and the viability is 106% [measured here: primary viability 10 ug/mL, library dosed in µg/mL]. For the same molecule, in assay [2], the fold increase was 1.66 [measured here: primary screen 10 ug/mL, library dosed in µg/mL].

On to `Oc1c(Cl)cc(Cl)c2cccnc12`, for which, in assay [1], the min viability is 59.9%; the viability was 75% and 73%. For the same molecule, in assay [2], the fold increase was 1.76 and 1.16.

On to `O=C(NCCN1CCCCCC1=O)C1CCCC1`, for which, in assay [1], the min viability was 89.4% [measured here: HeLa viability, alamarBlue, dose 0.039, library dosed in µg/mL] and the viability was 92% [measured here: primary viability 10 ug/mL, library dosed in µg/mL]. In addition, in assay [2], the fold increase was 2.74 [measured here: primary screen 10 ug/mL, library dosed in µg/mL].

Turning to `O=C(O)C[C@H](O)C[C@H](O)/C=C/c1c(C2CC2)nc2ccccc2c1-c1ccc(F)cc1`, in assay [1], the min viability is 65.5% [measured here: HeLa viability, alamarBlue, dose 6.25, library dosed in µM] and the viability is 94%. In assay [2], the fold increase turned out to be 1.63.

As for `Cc1cc2oc(=O)cc(CN3C(=O)NC(C)(c4ccccc4Cl)C3=O)c2cc1C` (stereo not given), in assay [1], the min viability is 72.6% [measured here: HeLa viability, alamarBlue, dose 0.63, library dosed in µg/mL] and the viability was 63% [measured here: primary viability 10 ug/mL, library dosed in µg/mL]. The fold increase in assay [2] was 1.12 [measured here: primary screen 10 ug/mL, library dosed in µg/mL].

For `CC(C)C[C@@H](NC(=O)[C@H](Cc1ccccc1)NC(=O)c1cnccn1)B(O)O`, in assay [1], the min viability is 51.7% and the viability is 63%. Also, the fold increase in assay [2] turned out to be 2.94.

For the molecule `CC[C@@]1(O)C(=O)OCc2c1cc1n(c2=O)Cc2cc3c(CN(C)C)c(O)ccc3nc2-1`, in assay [1], the min viability amounted to 68.5%; the viability was 108% and 78% and 77%. For the same molecule, the fold increase in assay [2] is 1.01 and 1.33 and 1.53.

Consider `O=C(Nc1nc(-c2cccs2)c(-c2cccs2)s1)C1CCCC1`, for which, in assay [1], the min viability is 63.7% [measured here: HeLa viability, alamarBlue, dose 20, library dosed in µg/mL] and the viability is 70% [measured here: primary viability 10 ug/mL, library dosed in µg/mL]. Further, the fold increase in assay [2] was 1.85 [measured here: primary screen 10 ug/mL, library dosed in µg/mL].

`O=c1[nH]c(CSC2=NCCN2)nc2cc(Cl)ccc12`: in assay [1], the min viability is 73.2% [measured here: HeLa viability, alamarBlue, dose 0.156, library dosed in µg/mL] and the viability is 77% [measured here: primary viability 10 ug/mL, library dosed in µg/mL]. Besides, the fold increase in assay [2] is 1.46 [measured here: primary screen 10 ug/mL, library dosed in µg/mL].

In the case of `CC(C)c1c(C(=O)c2ccccc2)c(-c2ccccc2)c(-c2ccc(F)cc2)n1CC[C@@H](O)C[C@@H](O)CC(=O)O`, in assay [1], the min viability was 79.4% [measured here: HeLa viability, alamarBlue, dose 0.78, library dosed in µM] and the viability turned out to be 91%. Also, the fold increase in assay [2] was 2.42.

Consider `c1ccc(COc2cccc(Nc3ccc4nnnn4n3)c2)nc1`, for which, in assay [1], the min viability is 55.7% [measured here: HeLa viability, alamarBlue, dose 1.25, library dosed in µg/mL] and the viability is 84% [measured here: primary viability 10 ug/mL, library dosed in µg/mL]. Further, the fold increase in assay [2] was 2.23 [measured here: primary screen 10 ug/mL, library dosed in µg/mL].

Consider `Cn1c(=O)c2c(ncn2CCC(=O)NCC2CCCCC2)n(C)c1=O`, for which, in assay [1], the min viability was 70.6% [measured here: HeLa viability, alamarBlue, dose 0.63, library dosed in µg/mL] and the viability is 97% [measured here: primary viability 10 ug/mL, library dosed in µg/mL]. Besides, the fold increase in assay [2] was 3.14 [measured here: primary screen 10 ug/mL, library dosed in µg/mL].

For the molecule `Cc1ccc(C(=O)/C=C/c2cc(Cl)c3c(c2)OCCO3)o1`, in assay [1], the min viability was 69.8% [measured here: HeLa viability, alamarBlue, dose 0.63, library dosed in µg/mL] and the viability is 81% [measured here: primary viability 10 ug/mL, library dosed in µg/mL]. Also, in assay [2], the fold increase is 1.48 [measured here: primary screen 10 ug/mL, library dosed in µg/mL].

For `S=c1nc[nH]c2nc[nH]c12`, the viability in assay [1] came out at 69%. In assay [2], the fold increase worked out at 1.29.

Turning to `CCCc1nc(C)c2c(=O)[nH]c(-c3cc(S(=O)(=O)N4CCN(CC)CC4)ccc3OCC)nn12`, in assay [1], the min viability was 55.2% [measured here: HeLa viability, alamarBlue, dose 25, library dosed in µM]; the viability was 92% and 60% and 107%. For the same molecule, the fold increase in assay [2] was 0.96 and 2.16 and 0.97.

For `C=CCn1c(COc2ccccc2-c2ccccc2)nnc1SC1CCOC1=O` (stereo not given), in assay [1], the min viability was 95.1% [measured here: HeLa viability, alamarBlue, dose 0.078, library dosed in µg/mL] and the viability was 98% [measured here: primary viability 10 ug/mL, library dosed in µg/mL]. For the same molecule, the fold increase in assay [2] was 1.62 [measured here: primary screen 10 ug/mL, library dosed in µg/mL].

Turning to `Cn1c(-c2c(N)n(CCCN3CCOCC3)c3nc(C#N)c(C#N)nc23)nc2ccccc21`, in assay [1], the min viability was 61% [measured here: HeLa viability, alamarBlue, dose 20, library dosed in µg/mL] and the viability is 72% [measured here: primary viability 10 ug/mL, library dosed in µg/mL]. The fold increase in assay [2] was 1.39 [measured here: primary screen 10 ug/mL, library dosed in µg/mL].
